Test results reported in PMC11661359, “Structure guided functional analysis of the S. cerevisiae Mre11 complex” (Research Square, 2024).
Substitutions are numbered along the chain they refer to. These are yes or no findings as the source states them, for the method shown. For part of these data: In cells and extracts the contact can be indirect. Some binding calls cover weakened binding; strength is not graded here. For part of these data: Sequences can lack the tags named with a protein.

Assays:
[1] = molecular target: T1, Mre11 (wild type, in S. cerevisiae cell extracts) (S. cerevisiae) (UniProt P32829); experiment: co-IP; cells grown at 30°C or 37°C; Rad50, Mre11 or Xrs2 immunoprecipitated from cell extracts, western blot with anti-Rad50, anti-Mre11 or anti-Xrs2 antibodies
T1 sequence: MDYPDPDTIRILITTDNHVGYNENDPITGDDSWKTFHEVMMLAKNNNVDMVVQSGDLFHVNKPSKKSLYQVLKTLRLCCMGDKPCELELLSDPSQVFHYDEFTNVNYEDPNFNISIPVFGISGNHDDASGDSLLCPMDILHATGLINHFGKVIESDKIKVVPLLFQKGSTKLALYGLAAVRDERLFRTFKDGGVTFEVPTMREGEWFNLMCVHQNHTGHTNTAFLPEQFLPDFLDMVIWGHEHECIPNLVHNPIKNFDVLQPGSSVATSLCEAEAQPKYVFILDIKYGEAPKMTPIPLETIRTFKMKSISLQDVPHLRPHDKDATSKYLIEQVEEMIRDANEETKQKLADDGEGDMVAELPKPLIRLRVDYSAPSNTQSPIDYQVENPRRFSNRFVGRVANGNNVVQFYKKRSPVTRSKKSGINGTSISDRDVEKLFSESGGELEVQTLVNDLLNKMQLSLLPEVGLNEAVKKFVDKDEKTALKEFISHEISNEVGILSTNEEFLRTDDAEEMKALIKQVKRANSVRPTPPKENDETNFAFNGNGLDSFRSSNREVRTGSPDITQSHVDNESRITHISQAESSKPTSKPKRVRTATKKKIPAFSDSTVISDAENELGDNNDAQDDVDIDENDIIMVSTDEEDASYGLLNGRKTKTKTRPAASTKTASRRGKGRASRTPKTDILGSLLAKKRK

[2] = molecular target: T2, Mre11-MRI-5A1 (K322A N387A R389A R390A R412A) (S. cerevisiae) (UniProt P32829); experiment: as above
T2 sequence: T1 sequence with K322A, N387A, R389A, R390A, R412A

[3] = molecular target: T3, Mre11-MRI-6A (K322A N387A R389A R390A K410A R412A), in cell extracts (S. cerevisiae) (UniProt P32829); experiment: as above
T3 sequence: T1 sequence with K322A, N387A, R389A, R390A, K410A, R412A

[4] = molecular target: T4, Mre11-MRI-5A2 (K322A N387A R389A R390A K410A) (S. cerevisiae) (UniProt P32829); experiment: as above
T4 sequence: T1 sequence with K322A, N387A, R389A, R390A, K410A

[5] = molecular target: T5, Mre11 (wild type) as Gal4 fusion for the yeast two-hybrid assay (S. cerevisiae), P32829; experiment: two-hybrid; Gal4 DNA-binding domain (pGBD; TRP1) and Gal4 activation domain (pGAD; LEU2) fusions; growth in absence of histidine (Do-TLH) and of adenine and histidine (Do-TLAH); conditions: remark: other sources report otherwise
T5 chain: T1 sequence

[6] = molecular target: T6, S. cerevisiae Mre11 with a C-terminal 1xFLAG tag (Mre11 of the purified MR^EQ complex) (S. cerevisiae), P32829; experiment: cryo-EM structure; purified MR^EQ incubated with a 83-mer dsDNA in the presence of ATP, MgCl2 and MnCl2; 3.2 Å; both purified; conditions: remark: other sources report otherwise
T6 chain: T1 sequence

B1: Rad50 (wild type, in S. cerevisiae cell extracts) (enzyme, UniProt P12753 1-1312)
chain: MSAIYKLSIQGIRSFDSNDRETIEFGKPLTLIVGMNGSGKTTIIECLKYATTGDLPPNSKGGVFIHDPKITGEKDIRAQVKLAFTSANGLNMIVTRNIQLLMKKTTTTFKTLEGQLVAINNSGDRSTLSTRSLELDAQVPLYLGVPKAILEYVIFCHQEDSLWPLSEPSNLKKKFDEIFQAMKFTKALDNLKSIKKDMSVDIKLLKQSVEHLKLDKDRSKAMKLNIHQLQTKIDQYNEEVSEIESQLNEITEKSDKLFKSNQDFQKILSKVENLKNTKLSISDQVKRLSNSIDILDLSKPDLQNLLANFSKVLMDKNNQLRDLETDISSLKDRQSSLQSLSNSLIRRQGELEAGKETYEKNRNHLSSLKEAFQHKFQGLSNIENSDMAQVNHEMSQFKAFISQDLTDTIDQFAKDIQLKETNLSDLIKSITVDSQNLEYNKKDRSKLIHDSEELAEKLKSFKSLSTQDSLNHELENLKTYKEKLQSWESENIIPKLNQKIEEKNNEMIILENQIEKFQDRIMKTNQQADLYAKLGLIKKSINTKLDELQKITEKLQNDSRIRQVFPLTQEFQRADLEMDFQKLFINMQKNIAINNKKMHELDRRYTNALYNLNTIEKDLQDNQKSKEKVIQLLSENLPEDCTIDEYNDVLEETELSYKTALENLKMHQTTLEFNRKALEIAERDSCCYLCSRKFENESFKSKLLQELKTKTDANFEKTLKDTVQNEKEYLHSLRLLEKHIITLNSINEKIDNSQKCLEKAKEETKTSKSKLDELEVDSTKLKDEKELAESEIRPLIEKFTYLEKELKDLENSSKTISEELSIYNTSEDGIQTVDELRDQQRKMNDSLRELRKTISDLQMEKDEKVRENSRMINLIKEKELTVSEIESSLTQKQNIDDSIRSKRENINDIDSRVKELEARIISLKNKKDEAQSVLDKVKNERDIQVRNKQKTVADINRLIDRFQTIYNEVVDFEAKGFDELQTTIKELELNKAQMLELKEQLDLKSNEVNEEKRKLADSNNEEKNLKQNLELIELKSQLQHIESEISRLDVQNAEAERDKYQEESLRLRTRFEKLSSENAGKLGEMKQLQNQIDSLTHQLRTDYKDIEKNYHKEWVELQTRSFVTDDIDVYSKALDSAIMKYHGLKMQDINRIIDELWKRTYSGTDIDTIKIRSDEVSSTVKGKSYNYRVVMYKQDVELDMRGRCSAGQKVLASIIIRLALSETFGANCGVIALDEPTTNLDEENIESLAKSLHNIINMRRHQKNFQLIVITHDEKFLGHMNAAAFTDHFFKVKRDDRQKSQIEWVDINRVTY
B1 was tested, and the binding [1] was “binds”, the binding [2] was “binds” and the binding [3] was “binds”. The binding [4] was “binds”.

B2: Mre11 (wild type) as Gal4 fusion for the yeast two-hybrid assay, P32829 1-692 (enzyme)
chain: T1 sequence
B2 was tested, and the binding [5] was “binds”.

B3: S. cerevisiae Mre11 with a C-terminal 1xFLAG tag (Mre11 of the purified MR^EQ complex), P32829 1-692 (enzyme)
chain: T1 sequence
B3 was tested, and the binding [6] was “binds”.
